Screen size: about 310,000 compounds; about 14,000 (4.5%) showed an effect of 50% or more. The effect is printed as a negative number. This is one part of the list.
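Note: peak tail current of the secondary pulse compared with the same well before compound.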

Chain of human ether-à-go-go-related gene (hERG) potassium channel (Q12809 whole entry, looked up): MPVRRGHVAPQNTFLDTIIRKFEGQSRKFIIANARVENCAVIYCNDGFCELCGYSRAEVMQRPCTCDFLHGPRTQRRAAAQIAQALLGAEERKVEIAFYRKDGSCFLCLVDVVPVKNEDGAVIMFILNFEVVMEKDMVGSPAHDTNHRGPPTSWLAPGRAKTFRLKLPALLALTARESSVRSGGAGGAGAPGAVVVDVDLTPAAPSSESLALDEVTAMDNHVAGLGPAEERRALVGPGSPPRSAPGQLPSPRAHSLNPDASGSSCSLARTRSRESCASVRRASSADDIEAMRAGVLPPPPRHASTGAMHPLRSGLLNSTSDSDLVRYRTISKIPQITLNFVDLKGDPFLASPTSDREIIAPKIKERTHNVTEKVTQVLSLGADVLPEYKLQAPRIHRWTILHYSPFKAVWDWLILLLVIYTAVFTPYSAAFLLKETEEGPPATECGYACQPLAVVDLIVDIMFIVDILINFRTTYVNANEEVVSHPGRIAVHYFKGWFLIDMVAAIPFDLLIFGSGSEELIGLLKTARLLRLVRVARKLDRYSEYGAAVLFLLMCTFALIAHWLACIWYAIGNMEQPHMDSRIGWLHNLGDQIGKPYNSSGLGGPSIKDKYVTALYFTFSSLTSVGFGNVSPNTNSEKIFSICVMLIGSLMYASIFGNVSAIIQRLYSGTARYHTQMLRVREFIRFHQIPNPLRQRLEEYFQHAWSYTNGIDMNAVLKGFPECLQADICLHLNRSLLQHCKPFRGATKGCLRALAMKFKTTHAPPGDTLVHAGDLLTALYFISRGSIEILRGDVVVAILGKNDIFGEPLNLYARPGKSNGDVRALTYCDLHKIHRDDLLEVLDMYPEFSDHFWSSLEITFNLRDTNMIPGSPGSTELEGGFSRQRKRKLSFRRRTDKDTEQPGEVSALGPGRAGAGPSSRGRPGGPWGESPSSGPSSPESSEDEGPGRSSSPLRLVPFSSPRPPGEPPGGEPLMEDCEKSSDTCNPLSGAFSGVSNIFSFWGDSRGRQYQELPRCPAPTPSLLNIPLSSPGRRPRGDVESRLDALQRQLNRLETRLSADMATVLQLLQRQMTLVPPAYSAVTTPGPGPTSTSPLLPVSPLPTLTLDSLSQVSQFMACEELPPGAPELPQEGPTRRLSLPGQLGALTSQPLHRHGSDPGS

This experiment concerns the target human ether-à-go-go-related gene (hERG) potassium channel (human, UniProt Q12809). The experiment in a line: primary screen, population patch clamp on CHO cells stably expressing hERG.
Turning to `COc1cc(/C=N/NC(=O)C(=O)NCC2CCCO2)ccc1OCC(=O)N1CCOCC1` (centres unmarked), the “hERG current change (%, negative = inhibition) at 10uM” value is reported as 21.5%.
For the molecule `O=C1c2ccccc2C(=O)N1n1c(=O)[nH]c2ccccc2c1=O`, the “hERG current change (%, negative = inhibition) at 10uM” value is given as 14.9%.
Consider `COc1nccnc1NS(=O)(=O)c1ccc(NC(=S)NC(=O)c2ccccc2)cc1`, for which the “hERG current change (%, negative = inhibition) at 10uM” value was determined as 10.2%.
Consider `Cc1c(C(=O)OCC(C)C)[nH]c2c1C(=O)CC(c1cccs1)C2` (centres unmarked), for which the “hERG current change (%, negative = inhibition) at 10uM” value was determined as 14.9%.
For `Cc1ccc(C(C)C)cc1OCC(=O)N/N=C/c1ccc2c(c1)OCCO2`, the “hERG current change (%, negative = inhibition) at 10uM” value is -4.93%.
Consider `Cc1ccc(CNC(=O)CCNS(=O)(=O)c2cccs2)cc1`, for which the “hERG current change (%, negative = inhibition) at 10uM” value was -11.9%.
As for `COc1ccc(C(=O)NCCNC(C)=O)cc1S(=O)(=O)NCc1ccc(Cl)cc1`, the “hERG current change (%, negative = inhibition) at 10uM” value stood at 9.85%.
On to `CSc1ccc(Cl)c(C(=O)NCc2ccco2)c1`, for which the “hERG current change (%, negative = inhibition) at 10uM” value turned out to be 5.53%.
In the case of `O=C(Cc1ccc(Br)cc1)NCCc1ccc(F)cc1`, the “hERG current change (%, negative = inhibition) at 10uM” value turned out to be 11.3%.
Take `CC(NC(=S)NC1CCCCC1)c1ccc(C(C)(C)C)cc1` (centres unmarked): the “hERG current change (%, negative = inhibition) at 10uM” value was 10.6%.
In the case of `Cc1cc(Oc2ccc(Br)cc2)nc(SCC(=O)c2ccccc2)n1`, the “hERG current change (%, negative = inhibition) at 10uM” value is reported as 1.53%.
For the molecule `COc1ccc(NC(=O)Nc2ccccc2SC)c(OC)c1`, the “hERG current change (%, negative = inhibition) at 10uM” value is reported as 25.7%.
Take `O=C(CCCN1C(=O)/C(=C/c2ccccc2Cl)SC1=S)Nc1cccnc1`: the “hERG current change (%, negative = inhibition) at 10uM” value is recorded as -1.14%.
On to `COc1ccc(C(=O)Nc2nc3c(s2)Cc2cc(OC)ccc2-3)cc1`, for which the “hERG current change (%, negative = inhibition) at 10uM” value is listed as -7.05%.
For the molecule `O=C(O)C1CCCCC1C(=O)OCCCCOC(=O)C1CCCCC1C(=O)O` (centres unmarked), the “hERG current change (%, negative = inhibition) at 10uM” value is 5.59%.
`Cc1cc(N2CCCC2=O)ccc1S(=O)(=O)Nc1c(C)nn(C)c1C`: the “hERG current change (%, negative = inhibition) at 10uM” value was determined as 12.3%.
In the case of `Cc1cc(-c2ccccc2)n2nc(C)c(C#N)c2n1` it was 16.9%; in that of `O=C(Nc1ccc(Cl)c(C(F)(F)F)c1)C(=O)N1CCCCC1`, -1.61%.
On to `O=C(C(=C1NCCN1)n1cncn1)c1ccccc1`, for which the “hERG current change (%, negative = inhibition) at 10uM” value was determined as 14.4%.
With `O=C(NCc1ccccc1)C1=C[C@H](c2ccc(Br)cc2)C[C@H](OCc2ccc(CO)cc2)O1`, the “hERG current change (%, negative = inhibition) at 10uM” value was found to be 3.56%.
Regarding `COc1ccc(/C(O)=C2/C(=O)C(=O)N(Cc3cccnc3)C2c2ccncc2)cc1F` (centres unmarked), the “hERG current change (%, negative = inhibition) at 10uM” value came out at 23.1%.
In the case of `COc1ccc(NC(=O)CCCNS(=O)(=O)c2cccs2)cc1` it was 2.91%.
On to `O=C(CSc1nc2nccnc2c(=O)n1Cc1cccs1)Nc1ccccc1F`, for which the “hERG current change (%, negative = inhibition) at 10uM” value was -69.1%.
In the case of `Nn1c(C2CCC2)nc2ccccc2c1=O` it was 0.704%.
In the case of `Cc1ccc(-c2csc(N3CCN(c4cc5c(cc4Cl)nc(C)n5CCN4CCCCC4)CC3)n2)cc1`, the “hERG current change (%, negative = inhibition) at 10uM” value was -6.33%.
As to `O=C1CCCC1C(=O)Nc1ccc2ccccc2c1` (centres unmarked), the “hERG current change (%, negative = inhibition) at 10uM” value is reported as 9.48%.
In the case of `CCCCNC(=O)CSc1nc2cc3c(cc2c(=O)n1Cc1ccco1)OCO3`, the “hERG current change (%, negative = inhibition) at 10uM” value is on record as -10.8%.
`COc1nc(N(C)C)nc(N(C#N)CCOC(C)=O)n1`: the “hERG current change (%, negative = inhibition) at 10uM” value came out at 7.17%.
With `C=CCOc1ccc(CN(C)CC(=O)Nc2ccc3c(c2)CCC3)cc1.O=C(O)C(=O)O`, the “hERG current change (%, negative = inhibition) at 10uM” value is on record as 5.75%.
In the case of `O=C(Cn1cnc2ccccc21)Nc1cc(C(F)(F)F)ccc1N1CCOCC1` it was -17.7%; in that of `COc1ccc(-c2nc3n(n2)C(=O)CC(c2ccco2)S3)cc1` (centres unmarked), 1.61%.
In the case of `COc1ccc(C(=O)NCC(=O)N/N=C/c2cccc(OC(=O)c3ccco3)c2)cc1OC` it was 21.6%.
As to `O=C(c1ccc(F)cc1)N(Cc1cccs1)C1CCS(=O)(=O)C1` (centres unmarked), the “hERG current change (%, negative = inhibition) at 10uM” value was 4.97%.
In the case of `Cn1nc([N+](=O)[O-])nc1N1CCN(c2ccc(F)cc2)CC1`, the “hERG current change (%, negative = inhibition) at 10uM” value is -31.3%.
`O=C(Cn1cc([N+](=O)[O-])cn1)Nc1ccccn1`: the “hERG current change (%, negative = inhibition) at 10uM” value worked out at 16.1%.
`Cc1ccc(NC(=O)[C@@H](NC(=O)N2C[C@H]3C[C@@H](C2)c2cccc(=O)n2C3)C(C)C)cc1`: the “hERG current change (%, negative = inhibition) at 10uM” value is -0.363%.
In the case of `CCOCc1nnc(NC(=O)c2cc(OC)c(OC)cc2[N+](=O)[O-])s1` it was 20.8%; in that of `Oc1ccccc1N1CCN(CC(O)COCc2ccccc2Cl)CC1` (centres unmarked), -42%.
For the molecule `O=C(Oc1ccc(F)c(F)c1)c1ccc2c(=O)n3c(nc2c1)CCC3`, the “hERG current change (%, negative = inhibition) at 10uM” value is given as -5.07%.
In the case of `CCc1cc2c(=O)c(-c3ccon3)c(N)oc2cc1OC` it was 2.34%; in that of `COc1ccc(N2CCN(C(=O)CSc3nnc(CNc4ccccc4)o3)CC2)cc1`, -0.0447%; in that of `COc1ccc(OC(=O)C2CC(=O)N(c3ccc(C)cc3)C2)cc1` (centres unmarked), -10.2%.
Regarding `C/C(=N\NC(=O)COc1ccccc1-c1ccccc1)c1cccnc1`, the “hERG current change (%, negative = inhibition) at 10uM” value was -53.9%.
On to `O=C(O)c1cccc(NC(=S)NC(=O)c2cncc(Br)c2)c1`, for which the “hERG current change (%, negative = inhibition) at 10uM” value is recorded as 11.1%.

These data come from paper PMC4336329 (PLoS ONE, 2015).
